Reference: ChEMBL document CHEMBL1157539, “Thousands of chemical starting points for antimalarial lead identification” (Nature, 2010)
Over roughly 13,000 compounds, “IFI” has its median near 4; the highest 2% begin near 17. The list shows a part of the results.

Assay: GSK_TCMDC: Inhibition Frequency Index (IFI). The number of non-kinase HTS assays where a compound showed > 50 % inhibition, expressed as a percentage of the number of such assays in which the compound was tested (-0 is zero)
Type: functional
CN1CCN(c2ccc(Nc3nc(N)c4ccn(C5CCC5)c4n3)cc2)CC1 gave an IFI of 8.11%. Cc1ccc2c(=NN=Cc3cccc(F)c3)cc(C)[nH]c2c1 gave an IFI of 5.15%. For N#Cc1ccc(-c2ccc(C(=O)NCCCCN3CCC(n4cnc5ccccc54)CC3)cc2)cc1, the IFI was 2.7%. Molecule COc1ccc(-c2ccc(NC(=O)c3cccc(C#N)c3)cc2)cc1CN1CCCC(C(N)=O)C1 (stereo not drawn) has an IFI of 1.98%. In the case of CC(C)c1ccc(CN2CCC(NC(=O)c3ccc(-c4cccc(F)c4)s3)CC2)cc1, the IFI is reported as 17.2%. For CC(Cc1ccc(CNC(=O)NCc2ccc(CC(C)NCCc3cccc(Cl)c3)cc2)cc1)NCCc1cccc(Cl)c1 (stereo not drawn), the IFI was 12.9%. With C=C[C@]1(C)C[C@@H](OC(=O)CSC2CN3CCC2C3)[C@@]2(C)C3C(=O)CC[C@@]3(CC[C@H]2C)[C@@H](C)[C@@H]1O (stereo partly drawn) the IFI was 2.04%. Cc1ccc(Nc2ccnc(Nc3ccc4c(c3)CS(=O)(=O)C4)n2)cc1O gave an IFI of 8.84%. CN(C)c1nc2cc(-n3cnc4cc(-c5ccc(Cl)cc5)sc4c3=O)ccc2n1CCCN1CCCC1 showed an IFI of 8.4%. COc1ccc(C2C(C(=O)OC3CCCC3)=C(C)NC3=C2C(=O)CCC3)cc1Br (stereo not drawn) gave an IFI of 2.96%. For N=C(N)Nc1nc(-c2cccc(NC(=O)Cc3ccccc3)c2)cs1, the IFI was -0%. Work on O=C(Cc1c[nH]cn1)Nc1ccc(-c2ccc(-c3nc4ccccc4[nH]3)s2)cc1 yielded an IFI of 2.8%. CCc1ccc(NC(=O)c2cccc(CN3CCCN(Cc4ccc(OC)cc4)CC3)c2)cc1 showed an IFI of 8.51%. CS(=O)(=O)CCNCc1nc(-c2ccc3c(=O)[nH]cnc3c2)cs1 gave an IFI of 22.6%. For Cc1cc(NCCc2ccc(O)cc2)nc(NCC(c2ccccc2)c2ccccc2)n1, the IFI was 15%. In the case of CCN1CCN(c2cc(C)c3cc(NC(=O)c4cccc([N+](=O)[O-])c4)ccc3n2)CC1, the IFI is reported as 2.7%. For CC(Cc1ccc(OCC(=O)NCC2CCN(CCc3cccc(Cl)c3)CC2)cc1)NCCc1cccc(Cl)c1 (stereo not drawn), the IFI was 9.49%. Work on CN(C)c1ccc(CN2CCCCC(NC(=O)c3cc(-c4ccccc4F)cs3)C2)cc1 (stereo not drawn) yielded an IFI of 3.64%. Molecule O=C(Nc1ccc(Cn2ncc(N3CCCNCC3)c(Cl)c2=O)cc1)Nc1cccc(Oc2ccccc2)c1 has an IFI of 7.46%. With Cc1ncccc1C(=O)Nc1cccc(-c2cccc(-c3nc4cccc(C)c4[nH]3)c2)c1 the IFI was 1.9%. CCOc1cc(Cl)c(C(C)NC(=O)c2ccccc2)cc1OCC (stereo not drawn) showed an IFI of -0%. Work on CN1CCCN(c2ccnc3cc4c(cc23)N(C(=O)c2ccccc2Cl)CC4)CC1 yielded an IFI of -0%. In the case of Cc1[nH]c(C)c(-c2ccc(-c3ccccc3F)nc2)c(=O)c1Cl, the IFI is reported as -0%. COC(=O)CCCCOc1c(OC)cc(Cc2cnc(N)nc2N)cc1OC gave an IFI of 2.05%. CCCC(=O)c1cnc2c(OCCCc3c[nH]cn3)cccc2c1Nc1c(C)cccc1C showed an IFI of 13.4%. For CNC(=O)c1cnc(Nc2ccc(N3CCN(C)CC3)c(C)c2)nc1NC, the IFI was 0%. For CC1(C)N=C(N)N=C(N)N1c1ccccc1, the IFI was 1.46%. COc1ccccc1CCNc1nc(C)cc(N[C@@H](Cc2ccccc2)C(=O)NCCCOC(C)C)n1 gave an IFI of -0%. In the case of Cc1cccc2nc(-c3ccc(-c4ccc(CNCCc5ccncc5)cc4)cc3)[nH]c12, the IFI is reported as 10%. With O=C(/C=C/c1ccc(Cl)c(Cl)c1)NCCCCCCN1CCCN(C(=O)Nc2cccc(Cl)c2)CC1 the IFI was 7.44%. O=C1CCCN1CCCNCc1cccc(-c2cccc(-c3nc4cc(F)ccc4[nH]3)c2)c1 showed an IFI of 4.85%. Molecule FC(F)(F)c1cccc(CNCC2CCN(CC3CCCCC3)CC2)c1 has an IFI of 1.38%. Work on CN(C)CCCn1c(N)c(-c2nc3ccccc3[nH]2)c2nc(C#N)c(C#N)nc21 yielded an IFI of 5.17%. In the case of Cc1ccnc(NC(=O)c2cc(-c3cccc([N+](=O)[O-])c3)nc3onc(C)c23)c1, the IFI is reported as 0%. In the case of COc1ccc2c(NN=Cc3cccc(Cl)c3)ccnc2c1, the IFI is reported as 2.94%. With COc1ccc(-c2cccc(NC(=O)c3cccs3)c2)cc1CN1CCCN(C)CC1 the IFI was 5.83%. CC1CNC(c2cccc(NC(=O)Nc3cccc(C4=NC(C)CN4)c3)c2)=N1 (stereo not drawn) showed an IFI of 1.47%. Cc1ccc(Oc2cnn(C)c(=O)c2Nc2cccc(C(=O)NCCc3ccccn3)c2)c(C)c1 gave an IFI of 4.88%. Molecule Cc1nnc2c(NC(=O)/C=C/c3ccc(OC(F)(F)F)cc3)cc3cc(Cl)ccc3n12 has an IFI of -0%. For N=C(N)Nc1nc(-c2ccc(NC(=N)N3CCC[C@H]3CN3CCCC3)cc2)cs1, the IFI was 2.17%. In the case of O=c1[nH]ccc2nc(N[C@@H]3CCCNC3)nc(Nc3ccc(S(=O)(=O)N4CCOCC4)cc3)c12, the IFI is reported as 0%. In the case of CC(C)(CN)c1nc(-c2ccc(Cl)c(O)c2)c(-c2ccncc2)[nH]1, the IFI is reported as 2.76%. Molecule COc1ccc(Nc2nccc(-c3cccc(NC(=O)c4cc5cc(F)ccc5[nH]4)c3)n2)cc1 has an IFI of 6.15%. Work on CCn1c(Sc2ccc([N+](=O)[O-])c(C#N)c2)nnc1-c1cccc(Cl)c1 yielded an IFI of 3.47%. CN1CCN(CC(O)CNC(=O)Nc2ccc(Cl)cc2)CC1 (stereo not drawn) gave an IFI of 0%. CC(=O)N/N=C/[C@H](CCc1ccccc1)NC(=O)[C@H](CC(C)C)NC(=O)c1ccc(OCCN2CCOCC2)cc1 showed an IFI of 4.55%. N#Cc1ccc2c(c1)CCN(CCC1CCC(NC(=O)c3cc4ccc(Cl)cc4[nH]3)CC1)C2 (stereo not drawn) gave an IFI of 1.52%. CC(C)N(CC(=O)c1ccc(O)c(C(=O)O)c1)Cc1ccccc1 gave an IFI of -0%. With Cc1c(Oc2ccc(-n3ccnc3)cc2)ncnc1N1CCC2(CC1)CNCc1ccccc12 the IFI was 15.6%. Work on CC(=O)c1ccc(S(=O)(=O)N2CCC(C(=O)Nc3ccccc3N3CCCC3)CC2)cc1 yielded an IFI of 4.04%. O=C(N[C@@H](Cc1ccccc1)C(=O)NC1CCCCC1)c1ccc(O)c(-c2ccc(Cl)c(Cl)c2)c1 gave an IFI of 2.96%. CN1CCN(CCNc2c3ccccc3nc3c2ccc2ccccc23)CC1 gave an IFI of 6.99%. CC(C)CNCc1cccc(-c2ccc(CN(CCCN3CCN(C)CC3)C(=O)/C=C/c3ccccc3)cc2)c1 showed an IFI of 5.15%. CCCCN(CCCC)Cc1cc(N(C)c2ccc([N+](=O)[O-])cn2)ccc1O showed an IFI of 3.17%. In the case of Cc1nc(N2CCC(C)CC2)c2c3c(sc2n1)CCCC3, the IFI is reported as 0.68%. COc1cc(CNCCCNc2nc3ncccc3[nH]2)c2[nH]cc(Br)c2c1 showed an IFI of 5.26%. Molecule CC(C)C(=O)NC(c1cccs1)c1cc(Cl)c2cccnc2c1O (stereo not drawn) has an IFI of 3.55%. For COc1ccc(NC(=O)c2ccc(-c3nc(-c4cccc(C(F)(F)F)c4)cs3)cc2)cc1N1CCN(C)CC1, the IFI was 9.01%.
